The BET-seq Pho4 binding data (Le et al. 2018)
This is one part of the list. The energies were worked out here from pooled read counts, against the library average; single values are noisy.

biological target: T1, Pho4 (S. cerevisiae) (UniProt P07270); experiment: relative binding free energy (BET-seq); higher = weaker binding; details: reference: library average
T1 sequence: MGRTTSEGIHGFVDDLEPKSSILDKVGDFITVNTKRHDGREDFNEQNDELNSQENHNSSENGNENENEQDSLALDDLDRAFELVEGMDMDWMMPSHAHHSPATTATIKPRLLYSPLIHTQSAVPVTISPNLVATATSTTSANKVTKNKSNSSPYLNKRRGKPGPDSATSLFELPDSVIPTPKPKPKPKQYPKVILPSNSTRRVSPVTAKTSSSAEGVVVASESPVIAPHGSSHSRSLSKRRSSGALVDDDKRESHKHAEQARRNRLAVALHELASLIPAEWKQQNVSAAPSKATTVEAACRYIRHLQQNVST

Relative binding free energy, -0.2 kcal/mol:
TAGGGCACGTGCTTAT

Relative binding free energy, 0.34 kcal/mol:
TATCACACGTGAATGT
TTTTTCACGTGGTTCT

Relative binding free energy, 0.16 kcal/mol:
GTTTTCACGTGTGTCA
GATGACACGTGTTTTT
CGTTTCACGTGTAGGC
GTCAGCACGTGATTTG

Relative binding free energy, 0.42 kcal/mol:
TTGCTCACGTGAAATT

Relative binding free energy, 0.56 kcal/mol:
TTTTTCACGTGAACGG

Relative binding free energy, 0.01 kcal/mol:
ATTGGCACGTGACGGG
ATGGACACGTGCTTGG
GGTGGCACGTGTGTGG
GACGTCACGTGTTGTT
TTGAACACGTGGATTG
GGTGGCACGTGGAGGT
TCTTACACGTGGGTTT
TTTTGCACGTGGATAA

Relative binding free energy, 0.39 kcal/mol:
CGTATCACGTGATATT
ATTTTCACGTGTTAAG
TTGATCACGTGAAGTT

Relative binding free energy, 0.06 kcal/mol:
TAATACACGTGTTGTT
TTAGTCACGTGCAGTT
TAGGTCACGTGCTTGG

Relative binding free energy, 0.02 kcal/mol:
TGGTACACGTGGGTTT
CGAGGCACGTGGAAGT

Relative binding free energy, 0.22 kcal/mol:
AGTTACACGTGAGAAG

Relative binding free energy, 0.15 kcal/mol:
AGGATCACGTGTTATA
AGATACACGTGTGGGC
CTATTCACGTGGGGAT

Relative binding free energy, 0.33 kcal/mol:
TAAATCACGTGAGGTA
GGTTTCACGTGGATCG
TATCTCACGTGAGGTG
TTTCTCACGTGAGCGT

Relative binding free energy, 0.5 kcal/mol:
GTTTACACGTGAGGAT

Relative binding free energy, 0.45 kcal/mol:
AGAGTCACGTGAGAAT

Relative binding free energy, 0.07 kcal/mol:
GGATCCACGTGTTTGG
CTCGGCACGTGAAGTG
AATGGCACGTGATGCT

Relative binding free energy, 0.24 kcal/mol:
GAGATCACGTGTGTAG
GTTATCACGTGAGTAA
ATTTACACGTGAGTAA
GTCGACACGTGATGGG

Relative binding free energy, 0.05 kcal/mol:
TAAGTCACGTGGAGCG
GTTTGCACGTGCCTTG
AACGGCACGTGTAGTT
TAGAGCACGTGAGGAG
GTGTGCACGTGCGGAT
TGTGCCACGTGTGGCA
GTAAACACGTGTTTGT

Relative binding free energy, -0.24 kcal/mol:
GGGGCCACGTGGAGGC
GTGGGCACGTGGTCTG

Relative binding free energy, 0.4 kcal/mol:
TGGTTCACGTGAATTT
TTCTTCACGTGATTGC

Relative binding free energy, -0.06 kcal/mol:
CTGAGCACGTGGTGAG
TGAGGCACGTGTTCAT
GGGTACACGTGGTGCA

Relative binding free energy, -0.01 kcal/mol:
TTTAACACGTGGTGAG
GAGGGCACGTGTGACT
CGATGCACGTGTTAGG

Relative binding free energy, -0.12 kcal/mol:
AAGTGCACGTGGGTAT
GGGGGCACGTGGCAAG

Relative binding free energy, -0.26 kcal/mol:
TGTCCCACGTGGTGGG
ATAGGCACGTGGTAGC

Relative binding free energy, 0.36 kcal/mol:
GAGTTCACGTGTGGTG
CATGACACGTGAGGGG

Relative binding free energy, 0.13 kcal/mol:
CTTTACACGTGTTAAT
TTGATCACGTGTAGGG
GGGGACACGTGGAGAA

Relative binding free energy, 0.14 kcal/mol:
GCTGTCACGTGATGAG
TATGTCACGTGTCGCT
CATTACACGTGATTGT

Relative binding free energy, -0.14 kcal/mol:
TGGCGCACGTGGATGT
GCAAGCACGTGTAGGG
ATTGTCACGTGGGCAA

Relative binding free energy, -0.35 kcal/mol:
ACATGCACGTGGGGTG

Relative binding free energy, -0.13 kcal/mol:
AGGGGCACGTGGTTTG

Relative binding free energy, -0.05 kcal/mol:
ATCGGCACGTGTATAG
AAGAGCACGTGTTATG

Relative binding free energy, 0.25 kcal/mol:
AATTACACGTGTAAGG
TTATTCACGTGGTTGT
CAGGTCACGTGTTTTT
AAGTACACGTGTAATT
GAAAACACGTGATGGT

Relative binding free energy, 0.32 kcal/mol:
TGGCTCACGTGGTAAA
GTTTACACGTGAGCGA
GGGTTCACGTGTCTAA

Relative binding free energy, -0.27 kcal/mol:
TGAGGCACGTGGGGCA
GTGGCCACGTGGGGGA

Relative binding free energy, -0.02 kcal/mol:
GTCGACACGTGGGGAG
TCTGTCACGTGGTATG
GTGAACACGTGGGGAT
ACAAACACGTGGGTTG
AAATACACGTGGGTGG
TTGGGCACGTGCCGAA
GGAGGCACGTGGATAT

Relative binding free energy, -0.04 kcal/mol:
TTAGCCACGTGTGGGA
ATAAGCACGTGTTTGC

Relative binding free energy, -0.16 kcal/mol:
GTCGGCACGTGCATGG
GCTGGCACGTGGTTCG

Relative binding free energy, -0.15 kcal/mol:
GGTCGCACGTGGGCAT
AGAGCCACGTGTGTGG
CACGGCACGTGGCGGG
TTGCGCACGTGGGCAT

Relative binding free energy, -0.09 kcal/mol:
GGCGCCACGTGTGGGA
TAAATCACGTGGGTTG
ATGTGCACGTGGTTGC
TTGTGCACGTGCTTGG
CTTTGCACGTGGTCTT
ATATGCACGTGCGTGG

Relative binding free energy, -0.03 kcal/mol:
TTAGGCACGTGTACGG
TATGACACGTGCGAGG
GGGGGCACGTGCACTG
ATAGGCACGTGTGACT

Relative binding free energy, 0.04 kcal/mol:
AGTTACACGTGTGTCG
ATTTGCACGTGTGTCA
TGAGTCACGTGCGTAT
TGCTACACGTGTGTTA

Relative binding free energy, 0.12 kcal/mol:
GTGCACACGTGTCGGT
TCGGTCACGTGGAGGG
TCAATCACGTGGGGAT

Relative binding free energy, 0.09 kcal/mol:
AGTAACACGTGTGGAT
TGGTACACGTGGTGTT
GTGTGCACGTGTGCGA
TGTGGCACGTGGAATA
GATGTCACGTGCCTGG
GTGTGCACGTGACGTC

Relative binding free energy, -0.08 kcal/mol:
AAGGGCACGTGGCTGG
TAGGGCACGTGTGATG
ATGTACACGTGTTTCA
TATGGCACGTGAGGCT
TTCGTCACGTGGGGCG
GGAGGCACGTGTCTTT

Relative binding free energy, -0.3 kcal/mol:
GGGAGCACGTGGGCAT
AGGCCCACGTGGGGGA

Relative binding free energy, 0.21 kcal/mol:
CTTTCCACGTGTGAGT
GTTATCACGTGCGGGG
AAGGACACGTGCGAGG
GAGTACACGTGTTGCT

Relative binding free energy, -0.11 kcal/mol:
TTGTGCACGTGCGTGA
TTCTACACGTGTTATT
TGTGGCACGTGACCGG
TACAGCACGTGTAGTG
AGGCGCACGTGGTGGA
CAGTACACGTGGGGGA

Relative binding free energy, 0.38 kcal/mol:
TAGGTCACGTGAGGAA
GTTTTCACGTGTGCGG

Relative binding free energy, -0.18 kcal/mol:
AGCGCCACGTGGTGGT
TGAGCCACGTGGTCGG
ATGGGCACGTGCTGTG
AGGGACACGTGGGTTT

Relative binding free energy, 0.18 kcal/mol:
TATTACACGTGATGGT
TTTATCACGTGGATTG
GGGGGCACGTGAGGCT
CAGCTCACGTGTGTGG
AGAGGCACGTGAAATG
GTTACCACGTGTTTCT

Relative binding free energy, 0.17 kcal/mol:
GAAGCCACGTGATGGG
TGAATCACGTGTTTTT
AGTTACACGTGTCCGG
TAGGTCACGTGATGGA

Relative binding free energy, 0 kcal/mol:
TGCATCACGTGGGCGT
TTCTGCACGTGTCTGG
TCGGGCACGTGTGGTG
GGTGACACGTGCTTTA
ATTATCACGTGTACGG
GTAGTCACGTGGTGAT
TGAGCCACGTGTGTCG
GGCAGCACGTGTGGGG

Relative binding free energy, -0.29 kcal/mol:
ATGTGCACGTGGGCCT

Relative binding free energy, 0.3 kcal/mol:
AAGTTCACGTGATAAG
GTGCTCACGTGTGTGT

Relative binding free energy, -0.19 kcal/mol:
TTATGCACGTGCCGTT

Relative binding free energy, 0.41 kcal/mol:
TGGTTCACGTGAGAAA

Relative binding free energy, 0.35 kcal/mol:
GAGTTCACGTGCGGAT
TATTTCACGTGCTTCG
TCGTTCACGTGTTAGT

Relative binding free energy, 0.08 kcal/mol:
GGTATCACGTGGCTGG
TGGTCCACGTGCGGGT
GGAGACACGTGTATGA
TGTTGCACGTGATAGC
TGTTACACGTGGAGTA
ATCTACACGTGGTTGT

Relative binding free energy, 0.03 kcal/mol:
CTGATCACGTGGGGAG
AGTCACACGTGCGGTT
ATTGCCACGTGATAGG
TTTGACACGTGAAATG
AGGCACACGTGGGAAG
GTTGTCACGTGGGTTA
TGGTCCACGTGGTAAA

Relative binding free energy, 0.1 kcal/mol:
TTGTTCACGTGGCGCT
TAGTACACGTGTGTAA
GGGGGCACGTGATGTT

Relative binding free energy, -0.1 kcal/mol:
TGTGACACGTGGCATG

Relative binding free energy, 0.11 kcal/mol:
TTGGTCACGTGGAATA

Relative binding free energy, 0.29 kcal/mol:
TGAATCACGTGAGTGG
TTATTCACGTGTGTCT
GACTGCACGTGATTTG
GGTTTCACGTGTGATG

Relative binding free energy, -0.22 kcal/mol:
CATAACACGTGGGGTT
GGAGGCACGTGGCTGT

Relative binding free energy, 0.2 kcal/mol:
GAGTACACGTGTAGTT
GGTAACACGTGTGATC
TTGGGCACGTGAGGCT
TGCGACACGTGTGGTA

Relative binding free energy, -0.17 kcal/mol:
TGGGCCACGTGGTCAG
ATTGGCACGTGCAGAT
CGCGGCACGTGGTCGT

Relative binding free energy, 0.31 kcal/mol:
GTCGGCACGTGAAATT
AGGTTCACGTGACTTG

Relative binding free energy, 0.23 kcal/mol:
AGTTACACGTGAGAGG
GATATCACGTGTTGTC
TAACTCACGTGGATGT

Relative binding free energy, 0.26 kcal/mol:
TTCGTCACGTGCGATT
GTTTGCACGTGAGGGA
GTTCGCACGTGATTGG

Relative binding free energy, 0.28 kcal/mol:
GAGGACACGTGGATTG
GTGGACACGTGAGGGG
TAGGTCACGTGTAAGG
GGGCTCACGTGTTTTT
AGTTTCACGTGTTGTA

Relative binding free energy, -0.07 kcal/mol:
TGCTGCACGTGCGTTA
TGCGCCACGTGCGGGT
TTGTGCACGTGGGACA
TAATGCACGTGGCTTT
CTGGACACGTGGGGTG

Relative binding free energy, -0.25 kcal/mol:
ATGAGCACGTGGGTGC

Relative binding free energy, 0.19 kcal/mol:
TTGATCACGTGGACGT
TATGTCACGTGAGGAT
TTTTTCACGTGATCAT
ATGGTCACGTGGGAAA
